Assay results as given in the supplement of paper PMC10126150.
Values marked as one replicate rest on one cluster of the flow cell; about a third of the high ones do not repeat.
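Note: ATP exposure 15 min at 22 °C before imaging.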

What follows are sequences tested on ATP (assay: switch fluorescence ratio, 500 uM ATP over buffer (Cy3 cluster intensity, sum of 5 cycles each) (fold (ratio)); higher = stronger signal-on switching upon ATP binding; sequences stand for … in TCGTCGGCAGCGTCAGATGTGTATAAGAGACAGTTTTTTTTTTTTTTTTTTTTTTTTT…TC). Conditions: aptamer strand: ATP DNA aptamer (quencher-CACCTGGGGGAGTATTGCGGAGGAAGG + anchor), 100 nM annealed; ATP concentration: 500 uM; one replicate.
In short: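 For every switch-domain sequence, the fluorescence ratio is the mean of per-cluster values, each being summed target-cycle Cy3 intensity over summed buffer-cycle Cy3 intensity. Clusters outside 100-1000 RFU were excluded. On a modified Illumina MiSeq flow-cell, the Cy3-labelled switching-strand clusters were annealed to 100 nM quencher-labelled ATP aptamer, imaged in selection buffer and then after 15 min with 500 uM ATP at 22 °C. Five such cycles were run, with NaOH stripping and re-annealing between them.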
Sequence TCGCGCAGTG has a switch fluorescence ratio of 1. Sequence GCAACGGGCA has a switch fluorescence ratio of 1.03. CTGTAAAATC was tested, and the switch fluorescence ratio was 1.66. In the case of CCCTTCTTGT, the switch fluorescence ratio is reported as 1.04. Sequence AAACTTAA has a switch fluorescence ratio of 1.04. TGGGACCTAT gave a switch fluorescence ratio of 0.992. For GATTGTTTAC, the switch fluorescence ratio was 1.13. For CAAATTGCGG, the switch fluorescence ratio was 1.03. In the case of CCCATGCAT, the switch fluorescence ratio is reported as 1.39. GGGGATACCA showed a switch fluorescence ratio of 1.02. Work on TGGTCAATCG yielded a switch fluorescence ratio of 1. Sequence GTTAACTCGT has a switch fluorescence ratio of 0.989. For AACCGCTTGA, the switch fluorescence ratio was 1.14. GAAAAATGAG showed a switch fluorescence ratio of 0.951. For TCCAAGGCTG, the switch fluorescence ratio was 0.987. CGTTAGACCG showed a switch fluorescence ratio of 0.999. In the case of TCCAAGCGGC, the switch fluorescence ratio is reported as 1.56. AGTTCATGTT was tested, and the switch fluorescence ratio was 1. In the case of CCATTTACAG, the switch fluorescence ratio is reported as 1.01. Work on TAGGTATTAA yielded a switch fluorescence ratio of 1.03. TGCCAGAATA gave a switch fluorescence ratio of 0.992. CGGCTAGGCT was tested, and the switch fluorescence ratio was 1. Work on TTTTTTGAA yielded a switch fluorescence ratio of 0.981. With TAAAGGACAG the switch fluorescence ratio was 0.982. GGGCGAGGTG gave a switch fluorescence ratio of 1.03. Work on AGCGAGCAAT yielded a switch fluorescence ratio of 2.32. GCGGTGTG gave a switch fluorescence ratio of 0.994. TCTTCCTTCG gave a switch fluorescence ratio of 2.56. Work on CGATCGGCCG yielded a switch fluorescence ratio of 0.98. Work on TGTTATCTTC yielded a switch fluorescence ratio of 0.982. Work on GAAAGAACGT yielded a switch fluorescence ratio of 1.02. GCCGACATGC showed a switch fluorescence ratio of 1.13. GGCCGGTAGA showed a switch fluorescence ratio of 1.02. TGCTCACATG showed a switch fluorescence ratio of 1.01. Sequence TTTTGAAGAC has a switch fluorescence ratio of 0.985. For ATTTGTGCTA, the switch fluorescence ratio was 1.02. Work on ACGTGATCAG yielded a switch fluorescence ratio of 1.02. With AAACCCCCC the switch fluorescence ratio was 1.4. For AATCTGTCGC, the switch fluorescence ratio was 1.03. In the case of TCTTTATAGG, the switch fluorescence ratio is reported as 1.01. TCTCATCCAG gave a switch fluorescence ratio of 1.42. For ATTTGGTCTG, the switch fluorescence ratio was 0.999. For AACGCTGGCA, the switch fluorescence ratio was 1.01. GTAAGGCTCT showed a switch fluorescence ratio of 0.957. In the case of CAGAAAAATC, the switch fluorescence ratio is reported as 0.99. For GTTTTGTT, the switch fluorescence ratio was 1.01. Sequence GAGCGATCAC has a switch fluorescence ratio of 1.22. GCGTGAAGAC showed a switch fluorescence ratio of 1.09. TTGATGGACA was tested, and the switch fluorescence ratio was 1.06. With GTGGGACTGG the switch fluorescence ratio was 1.03. GAATATAGGT gave a switch fluorescence ratio of 1.01. CCATCATCGT gave a switch fluorescence ratio of 0.989. With AAGTTGCGAA the switch fluorescence ratio was 1.01. Sequence TGAACAAAGG has a switch fluorescence ratio of 1.01. Work on AGAATGAGTC yielded a switch fluorescence ratio of 0.98. In the case of TTGCGGCTAC, the switch fluorescence ratio is reported as 1.01. In the case of TGGTTGGCGC, the switch fluorescence ratio is reported as 0.955. ATTATAGAT showed a switch fluorescence ratio of 1.02. AACTAGGCAG gave a switch fluorescence ratio of 0.993. For GCCTAAACA, the switch fluorescence ratio was 1. For ATTGTTAGGT, the switch fluorescence ratio was 1.02. In the case of CCATAAATTT, the switch fluorescence ratio is reported as 0.982. CGCCCAGCTG gave a switch fluorescence ratio of 1.7. CCGGTCCAAT gave a switch fluorescence ratio of 4.1. Sequence ACAGATCCAA has a switch fluorescence ratio of 0.996. ATACGGCTCT gave a switch fluorescence ratio of 0.998. For TCACAAATTG, the switch fluorescence ratio was 1.06. TAGGAGTCCG showed a switch fluorescence ratio of 1.01. Sequence TATTATTGTG has a switch fluorescence ratio of 0.983. Sequence GGTGTCCCTG has a switch fluorescence ratio of 1.04. Work on AACGCGGCGT yielded a switch fluorescence ratio of 0.998. Sequence CGAGGGGTA has a switch fluorescence ratio of 1.03. For CATGCGGACA, the switch fluorescence ratio was 1.03. Sequence TGTGTTCGCC has a switch fluorescence ratio of 1.03. GCGGTCGTGG was tested, and the switch fluorescence ratio was 0.955. Sequence GCTGTTTTCG has a switch fluorescence ratio of 1.03. In the case of ACGGTGTGGA, the switch fluorescence ratio is reported as 0.999. CTGTACAGGG was tested, and the switch fluorescence ratio was 0.997. TTCGGACGCC was tested, and the switch fluorescence ratio was 1.24. TGTGGTAGGG was tested, and the switch fluorescence ratio was 0.982. TGATTGAGAC gave a switch fluorescence ratio of 1.06. CAAATATTT was tested, and the switch fluorescence ratio was 1. For CATCCAACTG, the switch fluorescence ratio was 0.928. Sequence TAAAGTGTAG has a switch fluorescence ratio of 1.12. With TTATGCAGTG the switch fluorescence ratio was 0.969. CGCAGAGTTC showed a switch fluorescence ratio of 1.11. For AAGTTCTGAC, the switch fluorescence ratio was 1.02. Sequence TCGTAAATAG has a switch fluorescence ratio of 1.1. For AAATTCTTTT, the switch fluorescence ratio was 0.996. Sequence GGAAAGGACG has a switch fluorescence ratio of 1.03. Sequence TACTAGAGTC has a switch fluorescence ratio of 1.07. For AAGAAATTCT, the switch fluorescence ratio was 0.992. AGACAGTATA gave a switch fluorescence ratio of 1.08. TCTACATTGG was tested, and the switch fluorescence ratio was 1.01. For TCAGAGGCG, the switch fluorescence ratio was 1.04. TGTTTCAGAA was tested, and the switch fluorescence ratio was 0.962. Work on GATGGCTGAC yielded a switch fluorescence ratio of 1.11. In the case of GCGCTAGCAT, the switch fluorescence ratio is reported as 1.03. For TACGATTC, the switch fluorescence ratio was 0.956. With CGGAGAGACT the switch fluorescence ratio was 1.01.
